Experimental data from the supplement of paper PMC4604168 (melanoma cell lines).
The other results are listed elsewhere or left out. Many values rest on one well or one pass, so single values are uncertain.

How the values were obtained:
Experiment in all cases: cell count relative to DMSO control; melanoma cells; higher = more viable cells
Conditions in all cases: library dose: standard library concentration; 72 h
G361 = system: G361
IPC-298 = system: IPC-298
IST-MEL1 = system: IST-MEL1
LB2518-MEL = system: LB2518-MEL
LOXIMVI = system: LOXIMVI
MEL-HO = system: MEL-HO
MZ2-MEL = system: MZ2-MEL
MeWo = system: MeWo
RPMI7951 = system: RPMI7951
RVH-421 = system: RVH-421
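Note: cells treated in 1,536-well plates, then fixed and DAPI-stained, with nuclei counted from automated high-throughput microscope images.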

For `CC(C)C[C@H](NC(=O)[C@H](Cc1ccccc1)NC(=O)c1cnccn1)B(O)O` [Bortezomib] + O=c1cc(-c2cccc3c2Sc2ccccc2S3)oc(N2CCOCC2)c1 [KU55933] (first compound 0.005 µM, partner dose 5 µM), the cell count (G361) was 0.988%, the cell count (IPC-298) was 7.77% and the cell count (IST-MEL1) was 8.03%. For the same compound, the cell count (LB2518-MEL) was 1.89%, the cell count (LOXIMVI) was 144% and the cell count (MEL-HO) was 19.7%. The cell count (MZ2-MEL) was 3.22%, the cell count (MeWo) was 8.81% and the cell count (RPMI7951) was 7.19%. It also gave a cell count (RVH-421) of 13.2%.
Compound `Cc1cc(Nc2cc(N3CCN(C)CC3)nc(/C=C/c3ccccc3)n2)n[nH]1` + O=C(O)[C@@H]1[O][Sb](=[O])([O][Sb]2(=[O])[O][C@H]([C@H](O)CO)[C@H](O)[C@H](C(=O)O)[O]2)[O][C@H]([C@H](O)CO)[C@@H]1O [stibogluconate] (first compound 0.2 µM, partner dose 10 µM) has a cell count (G361) of 92.4%, a cell count (IPC-298) of 91.5% and a cell count (IST-MEL1) of 96.9%. It also gave a cell count (LB2518-MEL) of 77.9%, a cell count (LOXIMVI) of 82.3% and a cell count (MEL-HO) of 95.3%. For the same compound, the cell count (MZ2-MEL) was 88.7%, the cell count (MeWo) was 83.3% and the cell count (RPMI7951) was 81.5%. For the same compound, the cell count (RVH-421) was 71.8%.
With `CC(C)C[C@H](NC(=O)[C@H](Cc1ccccc1)NC(=O)c1cnccn1)B(O)O` [Bortezomib] + NCC(=O)Nc1ccc(-n2nc(C(F)(F)F)cc2-c2ccc3c(ccc4ccccc43)c2)cc1 [OSU03012] (first compound 0.005 µM, partner dose 5 µM) the cell count (G361) was 0.916%, the cell count (IPC-298) was 6.64% and the cell count (IST-MEL1) was 9.11%. The cell count (LB2518-MEL) was 0.942%, the cell count (LOXIMVI) was 10.2% and the cell count (MEL-HO) was 20.8%. For the same compound, the cell count (MZ2-MEL) was 1.59%, the cell count (MeWo) was 18.5% and the cell count (RPMI7951) was 2.56%. The cell count (RVH-421) was 6.18%.
`Cc1cn(-c2cc(NC(=O)c3ccc(C)c(Nc4nccc(-c5cccnc5)n4)c3)cc(C(F)(F)F)c2)cn1` [nilotinib] + COc1cc(Nc2ncc(F)c(Nc3ccc4c(n3)NC(=O)C(C)(C)O4)n2)cc(OC)c1OC [Tamatinib] (first compound 1 µM, partner dose 2 µM) was tested, and the cell count (G361) was 71.8%, the cell count (IPC-298) was 95.4% and the cell count (IST-MEL1) was 115%. The cell count (LB2518-MEL) was 97%, the cell count (LOXIMVI) was 40.7% and the cell count (MEL-HO) was 81.5%. It also gave a cell count (MZ2-MEL) of 82.4%, a cell count (MeWo) of 85% and a cell count (RPMI7951) of 33.1%. The cell count (RVH-421) was 504%.
For `COc1ccc(C2=N[C@@H](c3ccc(Cl)cc3)[C@@H](c3ccc(Cl)cc3)N2C(=O)N2CCNC(=O)C2)c(OC(C)C)c1` [Nutlin-3] + C[C@]1(c2nc3c(C(N)=O)cccc3[nH]2)CCCN1 [Veliparib] (first compound 0.5 µM, partner dose 7 µM), the cell count (G361) was 70.4%, the cell count (IPC-298) was 103% and the cell count (IST-MEL1) was 80.3%. It also gave a cell count (LB2518-MEL) of 51.5%, a cell count (LOXIMVI) of 30.9% and a cell count (MEL-HO) of 80.8%. The cell count (MZ2-MEL) was 67.5%, the cell count (MeWo) was 84.4% and the cell count (RPMI7951) was 82.5%. The cell count (RVH-421) was 48.2%.
Compound `COc1ccc(C2=N[C@@H](c3ccc(Cl)cc3)[C@@H](c3ccc(Cl)cc3)N2C(=O)N2CCNC(=O)C2)c(OC(C)C)c1` [Nutlin-3] + Nc1cccc2c1CN(C1CCC(=O)NC1=O)C2=O [lenalidomide] (first compound 0.5 µM, partner dose 5 µM) has a cell count (G361) of 70.1%, a cell count (IPC-298) of 107% and a cell count (IST-MEL1) of 103%. For the same compound, the cell count (LB2518-MEL) was 73.6%, the cell count (LOXIMVI) was 62.5% and the cell count (MEL-HO) was 93%. For the same compound, the cell count (MZ2-MEL) was 97.5%, the cell count (MeWo) was 108% and the cell count (RPMI7951) was 137%. For the same compound, the cell count (RVH-421) was 60.5%.
With `Cc1cn(-c2cc(NC(=O)c3ccc(C)c(Nc4nccc(-c5cccnc5)n4)c3)cc(C(F)(F)F)c2)cn1` [nilotinib] + Cc1nc(Nc2ncc(C(=O)Nc3c(C)cccc3Cl)s2)cc(N2CCN(CCO)CC2)n1 [dasatanib] (first compound 1 µM, partner dose 0.02 µM) the cell count (G361) was 67.8%, the cell count (IPC-298) was 97.2% and the cell count (IST-MEL1) was 60.7%. It also gave a cell count (LB2518-MEL) of 77.5%, a cell count (LOXIMVI) of 46.1% and a cell count (MEL-HO) of 84.8%. For the same compound, the cell count (MZ2-MEL) was 67%, the cell count (MeWo) was 75.4% and the cell count (RPMI7951) was 45.2%. The cell count (RVH-421) was 87.3%.
`Cc1cn(-c2cc(NC(=O)c3ccc(C)c(Nc4nccc(-c5cccnc5)n4)c3)cc(C(F)(F)F)c2)cn1` [nilotinib] + CCCCCCCCc1ccc(CCC(N)(CO)CO)cc1 [fingolimod] (first compound 1 µM, partner dose 10 µM) gave a cell count (G361) of 0.213%, a cell count (IPC-298) of 22.6% and a cell count (IST-MEL1) of 4.41%. The cell count (LB2518-MEL) was 0.231%, the cell count (LOXIMVI) was 18.4% and the cell count (MEL-HO) was 0.654%. It also gave a cell count (MZ2-MEL) of 1.3%, a cell count (MeWo) of 18.9% and a cell count (RPMI7951) of 0.723%. For the same compound, the cell count (RVH-421) was 1.13%.
For `Cc1cc(Nc2cc(N3CCN(C)CC3)nc(/C=C/c3ccccc3)n2)n[nH]1` + Nc1ccn([C@@H]2O[C@H](CO)[C@@H](O)C2(F)F)c(=O)n1 [gemcitabine] (first compound 0.2 µM, partner dose 0.002 µM), the cell count (G361) was 45.5%, the cell count (IPC-298) was 53% and the cell count (IST-MEL1) was 53.4%. The cell count (LB2518-MEL) was 71%, the cell count (LOXIMVI) was 69.1% and the cell count (MEL-HO) was 80.1%. The cell count (MZ2-MEL) was 90.6%, the cell count (MeWo) was 51.8% and the cell count (RPMI7951) was 50.1%. It also gave a cell count (RVH-421) of 58.6%.
In the case of `Cc1cc(Nc2cc(N3CCN(C)CC3)nc(/C=C/c3ccccc3)n2)n[nH]1` + COc1ccc2c(c1)CCC1C2CCC2(C)C(NCCCCCCN3C(=O)C=CC3=O)CCC12 [U73122] (first compound 0.2 µM, partner dose 2 µM), the cell count (G361) is reported as 74.2%, the cell count (IPC-298) is reported as 79.6% and the cell count (IST-MEL1) is reported as 75.9%. For the same compound, the cell count (LB2518-MEL) was 69.3%, the cell count (LOXIMVI) was 85.7% and the cell count (MEL-HO) was 72.1%. It also gave a cell count (MZ2-MEL) of 86.8%, a cell count (MeWo) of 47.3% and a cell count (RPMI7951) of 37.9%. The cell count (RVH-421) was 53.9%.
